# The supplement of paper PMC8728848
# Some of the results follow.
# B1: AT1G15820(2) (Arabidopsis thaliana), Q9LMQ2 (protein)
# chain: MAMAVSGAVLSGLGSSFLTGGKRGATALASGVGTGAQRVGRKTLIVAAAAAQPKKSWIPAVKGGGNFLDPEWLDGSLPGDFGFDPLGLGKDPAFLKWYREAELIHGRWAMAAVLGIFVGQAWSGVAWFEAGAQPDAIAPFSFGSLLGTQLLLMGWVESKRWVDFFNPDSQSVEWATPWSKTAENFANYTGDQGYPGGRFFDPLGLAGKNRDGVYEPDFEKLERLKLAEIKHSRLAMVAMLIFYFEAGQGKTPLGALGL
# Key:
# Test in all cases: glycan array binding signal (z-score within array); higher = stronger binding
# Conditions in all cases: glycan notation: IUPAC condensed, linker removed
# [1] = molecular target: GlcNAc(b1-4)GlcNAc(b1-4)GlcNAc(b1-4)GlcNAc(b1-4)GlcNAc
# Summary of the method: (§1)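 Glycan array data were curated from 3228 arrays in the Consortium for Functional Glycomics database and kept only where the protein sequence was available. Glycan names were converted to IUPAC-condensed notation, and columns mapping to the same glycan were averaged. The binding signal is a within-array Z-score, averaged across arrays of the same protein sequence at different concentrations or buffers and across linkers. Negative Z-scores can be read as non-binding.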
# [2] = molecular target: GlcNAc(b1-4)GlcNAc(b1-4)GlcNAc(b1-4)GlcNAc(b1-4)GlcNAc(b1-4)GlcNAc
# Summary of the method: as §1
# [3] = molecular target: GlcNAc(b1-4)[GlcNAc(b1-6)]GalNAc
# Summary of the method: as §1
# [4] = molecular target: GlcNAc(b1-6)Gal(b1-4)GlcNAc
# Summary of the method: as §1
# GlcNAc(b1-6)GalNAc = molecular target: GlcNAc(b1-6)GalNAc
# Summary of the method: as §1
# [5] = molecular target: GlcNAc6S(b1-3)Gal(b1-4)GlcNAc
# Summary of the method: as §1
# Kdn(a2-3)Gal(b1-3)GalNAc = molecular target: Kdn(a2-3)Gal(b1-3)GalNAc
# Summary of the method: as §1
# Kdn(a2-3)Gal(b1-3)GlcNAc = molecular target: Kdn(a2-3)Gal(b1-3)GlcNAc
# Summary of the method: as §1
# Kdn(a2-3)Gal(b1-4)Glc = molecular target: Kdn(a2-3)Gal(b1-4)Glc
# Summary of the method: as §1
# Kdn(a2-3)Gal(b1-4)GlcNAc = molecular target: Kdn(a2-3)Gal(b1-4)GlcNAc
# Summary of the method: as §1
# [6] = molecular target: Kdn(a2-3)Gal(b1-4)[Fuc(a1-3)]GlcNAc
# Summary of the method: as §1
# Kdn(a2-6)Gal(b1-4)GlcNAc = molecular target: Kdn(a2-6)Gal(b1-4)GlcNAc
# Summary of the method: as §1
# [7] = molecular target: Man(a1-2)Man(a1-2)Man(a1-3)Man
# Summary of the method: as §1
# [8] = molecular target: Man(a1-2)Man(a1-2)Man(a1-6)[Man(a1-3)]Man
# Summary of the method: as §1
# Man(a1-2)Man(a1-3)Man = molecular target: Man(a1-2)Man(a1-3)Man
# Summary of the method: as §1
# [9] = molecular target: Man(a1-2)Man(a1-3)[Man(a1-2)Man(a1-6)]Man
# Summary of the method: as §1
# [10] = molecular target: Man(a1-2)Man(a1-3)[Man(a1-2)Man(a1-6)]Man(a1-6)[Man(a1-2)Man(a1-2)Man(a1-3)]Man
# Summary of the method: as §1
# [11] = molecular target: Man(a1-2)Man(a1-3)[Man(a1-2)Man(a1-6)]Man(a1-6)[Man(a1-2)Man(a1-2)Man(a1-3)]Man(b1-4)GlcNAc(b1-4)GlcNAc
# Summary of the method: as §1
# [12] = molecular target: Man(a1-2)Man(a1-3)[Man(a1-6)]Man(a1-6)[Man(a1-2)Man(a1-3)]Man(b1-4)GlcNAc(b1-4)GlcNAc
# Summary of the method: as §1
# [13] = molecular target: Man(a1-2)Man(a1-6)[Man(a1-3)]Man(a1-6)[Man(a1-2)Man(a1-2)Man(a1-3)]Man
# Summary of the method: as §1
# [14] = molecular target: Man(a1-2)Man(a1-6)[Man(a1-3)]Man(a1-6)[Man(a1-2)Man(a1-2)Man(a1-3)]Man(b1-4)GlcNAc(b1-4)GlcNAc
# Summary of the method: as §1
# Man(a1-3)[Man(a1-6)]Man = molecular target: Man(a1-3)[Man(a1-6)]Man
# Summary of the method: as §1
# [15] = molecular target: Man(a1-3)[Man(a1-6)]Man(a1-6)[Man(a1-2)Man(a1-3)]Man(b1-4)GlcNAc(b1-4)GlcNAc
# Summary of the method: as §1
# [16] = molecular target: Man(a1-3)[Man(a1-6)]Man(a1-6)[Man(a1-3)]Man
# Summary of the method: as §1
# [17] = molecular target: Man(a1-3)[Man(a1-6)]Man(a1-6)[Man(a1-3)]Man(b1-4)GlcNAc(b1-4)GlcNAc
# Summary of the method: as §1
# [18] = molecular target: Man(a1-3)[Man(a1-6)]Man(b1-4)GlcNAc(b1-4)GlcNAc
# Summary of the method: as §1
# [19] = molecular target: Man(a1-3)[Man(a1-6)]Man(b1-4)GlcNAc(b1-4)[Fuc(a1-6)]GlcNAc
# Summary of the method: as §1
# Man(a1-6)Man = molecular target: Man(a1-6)Man
# Summary of the method: as §1
# Man(b1-4)GlcNAc = molecular target: Man(b1-4)GlcNAc
# Summary of the method: as §1
# MurNAc(b1-4)GlcNAc = molecular target: MurNAc(b1-4)GlcNAc
# Summary of the method: as §1
# Neu5Ac(a2-3)Gal = molecular target: Neu5Ac(a2-3)Gal
# Summary of the method: as §1
# [20] = molecular target: Neu5Ac(a2-3)Gal(b1-3)GalNAc
# Summary of the method: as §1
# [21] = molecular target: Neu5Ac(a2-3)Gal(b1-3)GalNAc(b1-3)Gal(a1-4)Gal(b1-4)Glc
# Summary of the method: as §1
# [22] = molecular target: Neu5Ac(a2-3)Gal(b1-3)GalNAc(b1-4)[Neu5Ac(a2-3)]Gal(b1-4)Glc
# Summary of the method: as §1
# [23] = molecular target: Neu5Ac(a2-3)Gal(b1-3)GalNAc(b1-4)[Neu5Ac(a2-8)Neu5Ac(a2-3)]Gal(b1-4)Glc
# Summary of the method: as §1
# [24] = molecular target: Neu5Ac(a2-3)Gal(b1-3)GalNAc6S
# Summary of the method: as §1
# [25] = molecular target: Neu5Ac(a2-3)Gal(b1-3)GlcNAc
# Summary of the method: as §1
binder,measurement,setting,value
B1,glycan array binding signal (z-score),[1],0.024
same,glycan array binding signal (z-score),[2],0.044
same,glycan array binding signal (z-score),[3],-0.387
same,glycan array binding signal (z-score),[4],-0.467
same,glycan array binding signal (z-score),GlcNAc(b1-6)GalNAc,-0.451
same,glycan array binding signal (z-score),[5],0.141
same,glycan array binding signal (z-score),Kdn(a2-3)Gal(b1-3)GalNAc,0.077
same,glycan array binding signal (z-score),Kdn(a2-3)Gal(b1-3)GlcNAc,0.161
same,glycan array binding signal (z-score),Kdn(a2-3)Gal(b1-4)Glc,-0.157
same,glycan array binding signal (z-score),Kdn(a2-3)Gal(b1-4)GlcNAc,0.077
same,glycan array binding signal (z-score),[6],-0.243
same,glycan array binding signal (z-score),Kdn(a2-6)Gal(b1-4)GlcNAc,-0.581
same,glycan array binding signal (z-score),[7],-0.608
same,glycan array binding signal (z-score),[8],-0.495
same,glycan array binding signal (z-score),Man(a1-2)Man(a1-3)Man,-0.176
same,glycan array binding signal (z-score),[9],-0.448
same,glycan array binding signal (z-score),[10],-0.689
same,glycan array binding signal (z-score),[11],-0.295
same,glycan array binding signal (z-score),[12],-0.442
same,glycan array binding signal (z-score),[13],-0.391
same,glycan array binding signal (z-score),[14],-0.821
same,glycan array binding signal (z-score),Man(a1-3)[Man(a1-6)]Man,-0.612
same,glycan array binding signal (z-score),[15],-0.08
same,glycan array binding signal (z-score),[16],0.044
same,glycan array binding signal (z-score),[17],-0.356
same,glycan array binding signal (z-score),[18],-0.023
same,glycan array binding signal (z-score),[19],-0.001
same,glycan array binding signal (z-score),Man(a1-6)Man,0.556
same,glycan array binding signal (z-score),Man(b1-4)GlcNAc,0.001
same,glycan array binding signal (z-score),MurNAc(b1-4)GlcNAc,0.083
same,glycan array binding signal (z-score),Neu5Ac(a2-3)Gal,-0.34
same,glycan array binding signal (z-score),[20],-0.67
same,glycan array binding signal (z-score),[21],-0.239
same,glycan array binding signal (z-score),[22],-0.138
same,glycan array binding signal (z-score),[23],-0.113
same,glycan array binding signal (z-score),[24],-0.359
same,glycan array binding signal (z-score),[25],-0.216
